B1: α1-antitrypsin C232S (AT_(C232S)) (natural protein)
chain: not shown
notes: α1-antitrypsin, wild-type (M) ORF with C232S; probably the mature protein without signal peptide (surmised); also called control; source: E. coli SG13009/pREP4 (pQE-30) or BL21(DE3) (pQE-81L), purified; not shown: His6, N-terminal, kept
B2: α1-antitrypsin C232S K335A (natural protein)
chain: not shown
notes: α1-antitrypsin, wild-type (M) ORF on the C232S background; Same construct as m3 with the stated changes; source: E. coli SG13009/pREP4 (pQE-30) or BL21(DE3) (pQE-81L), purified; not shown: His6, N-terminal, kept
B3: α1-antitrypsin C232S K331V (natural protein)
chain: not shown
notes: as for B2

Tests used:
[1] = biological target: the molecule itself; test: FRET or BRET; mutant series; 0.2 mg/ml protein, 4 μM Atto550–Ni-NTA and 4 μM Atto647N–Ni-NTA on the His6 tag, 10 mM NaH2PO4/Na2HPO4, 100 mM NaCl pH 7.4; heat-induced polymerization at 65°C; time to half-maximal signal
[2] = biological target: the molecule itself; test: FRET or BRET; mutant series; 0.2 mg/ml protein, 4 μM Atto550–Ni-NTA and 4 μM Atto647N–Ni-NTA on the His6 tag, 10 mM NaH2PO4/Na2HPO4, 100 mM NaCl pH 7.4; heat-induced polymerization at 55°C; time to half-maximal signal
[3] = biological target: the molecule itself; test: FRET or BRET; mutant series; 0.2 mg/ml protein, 4 μM Atto550–Ni-NTA and 4 μM Atto647N–Ni-NTA on the His6 tag, 10 mM NaH2PO4/Na2HPO4, 100 mM NaCl pH 7.4; heat-induced polymerization at 60°C; time to half-maximal signal

Protein	polymerization half-time (t0.5) [1] [s]	polymerization half-time (t0.5) [2] [s]	polymerization half-time (t0.5) [3] [s]
B1	38	880	109
B2	2520	40400	14200
B3	39	1310	248

From PMC4080824, “Altered native stability is the dominant basis for susceptibility of α1-antitrypsin mutants to polymerization” (Biochemical Journal, 2014)
